The text below walks through data of PubChem BioAssay AID328 (DTP/NCI, 2004).

Toxic doses and inconclusive results are not listed. A number of entries come with more than one value. This is not the full list of results. The source may hold further records. The values listed for one entry are repeats in other runs, samples, wells, individuals or studies. Records carry a tag for their origin. Letters hold for one entry only. Marks such as (2×) give the number of equal values in this list.

This experiment relates to BDF1 mice, P388 leukemia ip, median survival T/C. Briefly: NCI In Vivo Anticancer Drug Screen. Data for tumor model P388 Leukemia (intraperitoneal) in B6D2F1 (BDF1) mice. Conditions: endpoint: median survival time, higher = longer survival. The method, boiled down: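 Steps: implant the tumour, treat one group with compound and another with vehicle, record survival, then divide treated by control.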

Where [1] appears, read: dose: 25.0 mg/kg/injection, schedule: Q01DX009 (ip), vehicle: saline.
[2] abbreviates: dose: 33.0 mg/kg/injection, schedule: Q01DX009 (ip), vehicle: saline.

`OCCOCCN1CCN(CCCN2c3ccccc3Sc3ccc(C(F)(F)F)cc32)CC1`: the T/C (dose: 25.0 mg/kg/injection, schedule: Q04DX003 (ip), vehicle: saline) is 123 % of control and 150 % of control.
Consider `CCCn1cnc2c(=S)nc(N)[nH]c21`, for which the T/C runs as follows: (dose: 66.0 mg/kg/injection, schedule: Q04DX003 (ip), vehicle: Klucel (hydroxypropylcellulose) (HPC)) 105 % of control and 159 % of control; (dose: 100.0 mg/kg/injection, schedule: Q04DX003 (ip), vehicle: Klucel (hydroxypropylcellulose) (HPC)) 90 % of control and 168 % of control.
`O=C1C(NCC(O)CO)=C(N2CC2)C(=O)C(NCC(O)CO)=C1N1CC1` (stereo not drawn): the T/C (dose: 1.0 mg/kg/injection, schedule: Q01DX009 (ip), vehicle: saline) was 115 % of control and 181 % of control.
For the compound `Cc1ccc(Oc2ccc3cc[n+](C)cc3c2)cc1`, where the note is “dose: 6.25 mg/kg/injection, schedule: Q01DX009 (ip), vehicle: saline”, the T/C is 89 % of control and 180 % of control.
For `Nc1ncnc2c1nnn2C1CC(CO)C(O)C1O` (stereo not drawn), the T/C (dose: 150.0 mg/kg/injection, schedule: Q01DX009 (ip), vehicle: saline with Tween-80) was 118 % of control and 173 % of control.
With `O=C1N(Cl)C(=O)C(c2ccc(Cl)cc2)(c2ccc(Cl)cc2)N1Cl`, the T/C (dose: 300.0 mg/kg/injection, schedule: Q04DX003 (ip), vehicle: saline with Tween-80) was 104 % of control, 160 % of control, 163 % of control.
For `CN(CCCl)Cc1ccccc1`, the T/C under setting [1] was 100 % of control and 155 % of control; the T/C (dose: 50.0 mg/kg/injection, schedule: Q04DX003 (ip), vehicle: saline) was 119 % of control and 190 % of control; the T/C (dose: 66.0 mg/kg/injection, schedule: Q04DX003 (ip), vehicle: saline) was 120 % of control and 159 % of control.
Regarding `NCCc1ccc(O)c(O)c1`, the T/C (dose: 600.0 mg/kg/injection, schedule: Q01DX009 (ip), vehicle: saline) is 90 % of control and 168 % of control.
For the compound `NC(=O)c1ccc[n+](Cc2c(Cl)cccc2Cl)c1`, the T/C runs as follows: (dose: 9.3 mg/kg/injection, schedule: Q01DX009 (ip), vehicle: saline) 122 % of control and 158 % of control; (dose: 20.0 mg/kg/injection, schedule: Q04DX003 (ip), vehicle: saline) 100 % of control and 150 % of control.
With `CC(=O)C1COC(O)C1C` (stereo not drawn), the T/C (dose: 2.5 mg/kg/injection, schedule: Q01DX009 (ip), vehicle: saline) is 153 % of control [sample A] and 107 % of control [sample B].
Take `CC(Cl)CN(CC(C)Cl)c1ccc(S(=O)(=O)Nc2ncccn2)cc1` (stereo not drawn): under “dose: 200.0 mg/kg/injection, schedule: Q01DX009 (ip), vehicle: gum acacia”, the T/C was 88 % of control and 272 % of control.
Consider `Cn1cnc([N+](=O)[O-])c1Sc1nc(N)nc2c1ncn2C1OC(CO)C(O)C1O` (stereo not drawn), for which, for the setting “dose: 37.0 mg/kg/injection, schedule: Q04DX003 (ip), vehicle: saline”, the T/C is 90 % of control and 183 % of control.
`COC(=O)C[C@](O)(CCCC(C)(C)O)C(=O)O[C@@H]1C(OC)=C[C@]23CCCN2CCc2cc4c(cc2[C@H]13)OCO4`: the T/C (dose: 2.0 mg/kg/injection, schedule: Q01DX009 (ip), vehicle: saline) is 95 % of control and 300 % of control.
Consider `CC[n+]1c(-c2ccccc2)c2cc(N)ccc2c2ccc(N)cc21`, for which, for the setting “dose: 10.0 mg/kg/injection, schedule: Q01DX010 (ip), vehicle: saline”, the T/C was 123 % of control and 150 % of control.
Consider `COC1=C(N)C(=O)c2nc(-c3nc(C(=O)O)c(C)c(-c4ccc(OC)c(OC)c4O)c3N)ccc2C1=O`, for which the T/C (dose: 0.05 mg/kg/injection, schedule: Q01DX010 (ip), vehicle: saline) was 118 % of control [sample A] and 155 % of control [sample B].
Turning to `[Cl][Pt+2][Cl].[NH-]C1CCC1.[NH-]C1CCC1`, for the setting “dose: 6.25 mg/kg/injection, schedule: Q01DX009 (ip), vehicle: Klucel (hydroxypropylcellulose) (HPC)”, the T/C is 115 % of control and 173 % of control.
In the case of `COC(C(=O)C(O)C(C)O)C1Cc2cc3cc(OC4CC(OC(C)=O)C(OC5CC(O)C(OC)C(C)O5)C(C)O4)cc(O)c3c(O)c2C(=O)C1OC1CC(OC2CC(OC3CC(C)(O)C(OC(=O)C(C)C)C(C)O3)C(O)C(C)O2)C(O)C(C)O1` (stereo not drawn), the T/C (dose: 2.0 mg/kg/injection, schedule: Q01DX009 (ip), vehicle: other) is 195 % of control [sample A] and 87 % of control [sample B].
On to `O=NN(CCBr)C(=O)Nc1ccccc1`, for which the T/C (dose: 10.0 mg/kg/injection, schedule: Q04DX003 (ip), vehicle: Klucel (hydroxypropylcellulose) (HPC)) was 119 % of control and 154 % of control.
For the compound `O=C1CC(c2ccc(O)cc2)CC(=O)C1C(C1CC=CCC1)N(CCCl)CCCl` (stereo not drawn), the T/C (dose: 400.0 mg/kg/injection, schedule: Q04DX003 (ip), vehicle: Klucel (hydroxypropylcellulose) (HPC)) was 150 % of control (2×), 158 % of control [sample A] and 112 % of control [sample B].
Take `Nc1ccc2nc3ccc(N)cc3[n+](-c3ccccc3)c2c1`: the T/C (dose: 12.0 mg/kg/injection, schedule: Q01DX009 (ip), vehicle: saline) is 109 % of control and 183 % of control.
For the compound `Nc1ncnc2c1c(C(=O)O)cn2C1OC(CO)C(O)C1O` (stereo not drawn), for the setting “dose: 150.0 mg/kg/injection, schedule: Q04DX003 (ip), vehicle: saline with Tween-80”, the T/C was 95 % of control and 185 % of control.
As to `c1nc(SC2=NCCN2)c2[nH]cnc2n1`, the T/C under setting [2] is 119 % of control and 150 % of control.
As to `CCSc1ccc2c(cc1=O)[C@@H](NC1OC(CO)C(O)C(O)C1O)CCc1cc(OC)c(OC)c(OC)c1-2` (stereo partly drawn), the T/C (dose: 400.0 mg/kg/injection, schedule: Q01DX009 (ip), vehicle: other) was 106 % of control and 155 % of control.
Take `C=CCCCC[P+](c1ccccc1)(c1ccccc1)c1ccccc1`: for the setting “dose: 3.0 mg/kg/injection, schedule: Q01DX010 (ip), vehicle: saline”, the T/C was 120 % of control and 150 % of control.
As for `N/C(=N\Cl)C(Cl)(Cl)Cl`, for the setting “dose: 16.5 mg/kg/injection, schedule: Q01DX009 (ip), vehicle: saline”, the T/C is 113 % of control and 150 % of control.
As for `COc1cc(/C=C(/C)[N+](=O)[O-])ccc1O`, the T/C under setting [1] was 118 % of control and 155 % of control.
On to `CN(C)/N=N/c1nc[nH]c1C(N)=O`, for which the T/C (dose: 100.0 mg/kg/injection, schedule: Q01DX010 (ip), vehicle: saline) was 100 % of control and 154 % of control.
As for `Cc1c2ccccc2cc2cccc[n+]12`, the T/C (dose: 20.0 mg/kg/injection, schedule: Q01DX010 (ip), vehicle: saline) is 100 % of control and 170 % of control.
Take `CC1(C)S[C@@H]2[C@H](NC(=O)CCC[C@@H](N)C(=O)O)C(=O)N2[C@H]1C(=O)O`: the T/C (dose: 375.0 mg/kg/injection, schedule: Q01DX009 (ip), vehicle: saline) is recorded as 106 % of control, 117 % of control, 156 % of control.
As to `COc1cc(Cc2nccc3cc(OC)c(OC)cc23)c(C(C)=O)c(OC)c1`, the T/C reads like this: (dose: 40.0 mg/kg/injection, schedule: Q01DX009 (ip), vehicle: saline) 110 % of control and 166 % of control; (dose: 80.0 mg/kg/injection, schedule: Q01DX009 (ip), vehicle: saline) 100 % of control and 190 % of control.
Take `CC1CN1P(=O)(Oc1ccccc1)N1CC1C` (stereo not drawn): the T/C (dose: 100.0 mg/kg/injection, schedule: Q01DX009 (ip), vehicle: saline) is 112 % of control and 195 % of control.
For the compound `OCC1OC(OC2(CO)OC(CO)C(O)C2O)C(O)C(O)C1O` (stereo not drawn), the T/C under setting [2] was 122 % of control and 155 % of control.
For the compound `Nc1nc(N)c(-c2ccc(Cl)c(Cl)c2)c(COc2cccc(CNC(=O)c3cccc(S(=O)(=O)F)c3)c2)n1`, the T/C (dose: 300.0 mg/kg/injection, schedule: Q04DX003 (ip), vehicle: Klucel (hydroxypropylcellulose) (HPC)) is 119 % of control and 150 % of control.
